Test results reported in publication PMC4336329 (PLoS ONE, 2015).
Hit rate of the full screen: of about 310,000 compounds, about 2,200 (0.71%) showed an effect of 50% or more. The effect is printed as a negative number. The list shows a part of the results.

biological target: human ether-à-go-go-related gene (hERG) potassium channel (human, UniProt Q12809); assay: primary screen, population patch clamp on CHO cells stably expressing hERG
Sequence (Q12809 whole entry, looked up): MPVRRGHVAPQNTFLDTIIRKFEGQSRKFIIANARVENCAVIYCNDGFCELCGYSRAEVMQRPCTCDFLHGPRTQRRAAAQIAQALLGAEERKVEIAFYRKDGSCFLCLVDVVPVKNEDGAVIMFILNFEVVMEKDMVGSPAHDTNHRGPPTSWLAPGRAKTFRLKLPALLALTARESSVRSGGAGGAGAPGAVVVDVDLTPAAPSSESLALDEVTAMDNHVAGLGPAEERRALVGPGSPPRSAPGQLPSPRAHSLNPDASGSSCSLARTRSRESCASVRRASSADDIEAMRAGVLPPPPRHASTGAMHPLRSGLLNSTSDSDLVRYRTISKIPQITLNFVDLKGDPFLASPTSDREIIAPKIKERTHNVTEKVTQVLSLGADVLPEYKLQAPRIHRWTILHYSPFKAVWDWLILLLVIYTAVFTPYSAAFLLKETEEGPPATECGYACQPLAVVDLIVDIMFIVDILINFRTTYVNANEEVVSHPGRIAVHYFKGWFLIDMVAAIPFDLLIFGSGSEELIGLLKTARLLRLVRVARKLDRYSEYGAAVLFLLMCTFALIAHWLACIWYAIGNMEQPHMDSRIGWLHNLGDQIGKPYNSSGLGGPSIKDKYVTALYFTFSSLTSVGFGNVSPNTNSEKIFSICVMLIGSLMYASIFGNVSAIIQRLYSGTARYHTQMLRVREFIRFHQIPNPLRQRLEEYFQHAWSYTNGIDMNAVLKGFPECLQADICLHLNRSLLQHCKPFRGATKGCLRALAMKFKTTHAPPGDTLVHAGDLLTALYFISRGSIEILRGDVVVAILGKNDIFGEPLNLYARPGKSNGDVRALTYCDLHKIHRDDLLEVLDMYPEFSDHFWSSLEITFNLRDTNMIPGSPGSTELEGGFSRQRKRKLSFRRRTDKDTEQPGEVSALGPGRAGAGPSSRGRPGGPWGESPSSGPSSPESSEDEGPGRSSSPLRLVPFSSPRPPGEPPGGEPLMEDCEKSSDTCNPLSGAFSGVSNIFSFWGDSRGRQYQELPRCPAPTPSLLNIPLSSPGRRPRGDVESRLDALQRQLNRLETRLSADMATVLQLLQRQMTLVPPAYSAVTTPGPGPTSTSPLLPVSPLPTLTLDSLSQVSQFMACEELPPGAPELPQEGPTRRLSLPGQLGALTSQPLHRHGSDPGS

First: O=C1CCCC2=C1C(c1ccc3c(c1)OCO3)c1c([nH]n(-c3ccccc3)c1=O)N2 (centres unmarked)
Second: CCSc1ccccc1C(=O)N1CCN(Cc2ccc3c(c2)OCO3)CC1
The “hERG current change (%, negative = inhibition) at 1uM” value of the first is lower: 9.33% for the first, 15.9% for the second.

First: O=C(NC1CCSC1=O)c1ccc(Oc2cccc(C(F)(F)F)c2)nc1 (centres unmarked)
Second: Cc1oc(-c2ccc(Cl)cc2)cc1C(=O)/C(C#N)=C/Nc1cccc(OC(F)(F)F)c1
The “hERG current change (%, negative = inhibition) at 1uM” value of the first is lower: -4.49% for the first, 7.4% for the second.

First: CCOc1cc(N2CCOCC2)c(OCC)cc1NC(=O)c1ccccc1
Second: CC(=O)Nc1cccc(Oc2cc(C#N)c(C#N)cc2N2CCOCC2)c1
The “hERG current change (%, negative = inhibition) at 1uM” value of the first is higher: 11.3% for the first, 6.97% for the second.

Compared with `CCCc1nc2nc(C)c(NS(=O)(=O)c3ccc([N+](=O)[O-])cc3)c(=O)n2[nH]1`, `COCCN(CCOC)S(=O)(=O)c1ccc(C(=O)Nc2ccc([N+](=O)[O-])cc2OC)cc1` is higher in “hERG current change (%, negative = inhibition) at 1uM” value: 9.6% for the first, 11.1% for the second.

Compared with `CCc1ccc(Nc2nnc(SCC(=O)Nc3cccc(S(=O)(=O)NC4=NCCCCC4)c3)s2)cc1`, `COc1cccc(NC(=O)CN(C)C(=O)c2cc3c(s2)CCCCC3)c1` is lower in “hERG current change (%, negative = inhibition) at 1uM” value: 14.9% for the first, 9.34% for the second.

Compared with `COc1ccc(CCNC(=O)[C@@H](NC(=O)N2CC(=O)Nc3ccccc32)C(C)C)cc1OC`, `COc1ccc(CCNC(=O)CSc2n[nH]c(N)n2)cc1OC` is higher in “hERG current change (%, negative = inhibition) at 1uM” value: 9.65% for the first, 18.1% for the second.

First: Cc1ccc(-n2ncc3c(=O)n(-c4ccc(C)c(C)c4)c(-c4ccco4)nc32)cc1
Second: COc1ccc(CC(=O)Nc2cccc(-c3nnc(-c4ccco4)o3)c2)cc1
The “hERG current change (%, negative = inhibition) at 1uM” value of the first is lower: -0.87% for the first, 5.57% for the second.

First: COc1ccc(OCCCC(=O)Nc2ccc(N3CCCCC3)cc2)cc1.Cl
Second: Cc1ccc(OCC(=O)N(C)CC(=O)Nc2ccc(N3CCOCC3)cc2)cc1
The “hERG current change (%, negative = inhibition) at 1uM” value of the first is lower: 1.11% for the first, 14.3% for the second.

Going from `Cc1cc(S(=O)(=O)N2CCCOC2CNC(=O)C(=O)NCc2cccs2)ccc1F` (centres unmarked) to `CCc1ccccc1N1CCN(S(=O)(=O)c2ccc(F)c(C)c2)CC1`, the “hERG current change (%, negative = inhibition) at 1uM” value rises from 13.7% to 14.2%.

Going from `CCC(CC)COC(=O)C1=C(C)NC(=O)NC1c1ccc(N(C)C)cc1` (centres unmarked) to `CCOC(=O)c1ccc(NC(=O)C2=C(C)Nc3nc(CCCO)nn3C2c2cccc(C)c2)cc1` (centres unmarked), the “hERG current change (%, negative = inhibition) at 1uM” value falls from 21.5% to 5.09%.

Going from `COc1ccc(CC(=O)N(CC2CCCO2)c2nc3ccccc3s2)cc1` (centres unmarked) to `COc1ccc(C(=O)N/N=C/c2sc3ccccc3c2O)cc1`, the “hERG current change (%, negative = inhibition) at 1uM” value rises from 6.23% to 8.96%.

Compared with `CCCOn1c(-n2nc(C)cc2C)nc2ccccc2c1=O`, `CCOC(=O)c1cc2c(ccn2C)n1Cc1ccccc1Cl` is lower in “hERG current change (%, negative = inhibition) at 1uM” value: 6.89% for the first, -0.512% for the second.

Compared with `CC1CCN(C(=O)CNS(=O)(=O)c2ccc(Br)s2)CC1`, `CCOC(=O)N1CCC(NC(=O)c2ccccc2C(=O)O)CC1` is higher in “hERG current change (%, negative = inhibition) at 1uM” value: -0.447% for the first, 6.18% for the second.

First: CCOC(=O)C1C(=O)CC(C)(O)C(C(=O)OCC)C1c1ccco1 (centres unmarked)
Second: CCCC(=O)C1=C(O)C(C(=O)OC)C(C)(C)CC1=NCCc1ccc(OC)c(OC)c1 (centres unmarked)
The “hERG current change (%, negative = inhibition) at 1uM” value of the first is higher: -2.26% for the first, -4.11% for the second.

First: CCOc1ccccc1NS(=O)(=O)c1ccc(OC)c(OC)c1
Second: COc1ccc(NS(=O)(=O)c2cccc3ccccc23)cc1
The “hERG current change (%, negative = inhibition) at 1uM” value of the first is lower: 10.6% for the first, 10.7% for the second.

Compared with `CCN(CC)S(=O)(=O)c1cccc(-c2nnc(SCC(N)=O)n2CCc2ccccc2)c1`, `Nc1cc(=O)nc(SCC(=O)Nc2cccc3ccccc23)n1CCc1ccccc1` is higher in “hERG current change (%, negative = inhibition) at 1uM” value: -1.62% for the first, -1.09% for the second.

First: COc1ccccc1-n1ccnc(SCC(=O)NC2CCCCC2)c1=O
Second: CCN1CCN(C(c2ccccc2OC)c2nnnn2C2CCCCC2)CC1.Cl (centres unmarked)
The “hERG current change (%, negative = inhibition) at 1uM” value of the first is lower: 7.12% for the first, 10.1% for the second.

Compared with `Cc1cccn2cc(CCNS(=O)(=O)c3ccc4c(c3)OCCO4)nc12`, `Cc1ccc(NC(=O)COC(=O)c2ccc3c(c2)OCCO3)cc1` is higher in “hERG current change (%, negative = inhibition) at 1uM” value: 3.67% for the first, 9.33% for the second.

First: COc1ccccc1Nc1nc2nonc2nc1N1CCCCC1C (centres unmarked)
Second: COc1ccccc1NC(=O)c1csc2c1CCC(C)C2 (centres unmarked)
The “hERG current change (%, negative = inhibition) at 1uM” value of the first is higher: 13.7% for the first, 7.55% for the second.

Going from `CCOC(=O)N1CCN(S(=O)(=O)N(C)C)CC1` to `CCN(CC)CCNC(=O)Cn1cnc2sc(C)c(S(=O)(=O)N3CCN(c4ccccc4OC)CC3)c2c1=O`, the “hERG current change (%, negative = inhibition) at 1uM” value rises from 9.62% to 11.9%.

Compared with `COc1cccc(C2CC(c3ccc(C)cc3)n3ncnc3N2)c1` (centres unmarked), `COc1ccc(CN2C(=O)[C@@H]3C(c4ccc(F)cc4)=NO[C@@H]3C2=O)cc1` is higher in “hERG current change (%, negative = inhibition) at 1uM” value: -6.28% for the first, 9.84% for the second.

Going from `O=C1C2CCCN2C(=S)N1C1CCCCC1` (centres unmarked) to `O=C(NCC1CCCCC1)C1(CC2CC(c3cccc(Br)c3)=NO2)CCNCC1` (centres unmarked), the “hERG current change (%, negative = inhibition) at 1uM” value falls from 6.41% to 1.29%.

Going from `CCOc1ccccc1N(C(=O)CNC(=O)c1ccco1)C(C(=O)NC(C)(C)C)c1ccncc1` (centres unmarked) to `CC(Oc1ccc2ccccc2c1)C(=O)NNC(=S)NC(=O)c1ccco1` (centres unmarked), the “hERG current change (%, negative = inhibition) at 1uM” value falls from 8.81% to 5.12%.

Going from `Cn1c(N)c(-c2nc3cccnc3n2C)sc1=S` to `Cc1ccnc(NC(=O)Cn2ccc([N+](=O)[O-])n2)c1`, the “hERG current change (%, negative = inhibition) at 1uM” value falls from 26.6% to -0.76%.

First: CCCC(=O)OCCNc1cc(Sc2nccn2C)c2nonc2c1[N+](=O)[O-]
Second: CCc1nn(C(C)C(=O)NCCN2CCCCCC2)c(=O)c2cc3occc3n12 (centres unmarked)
The “hERG current change (%, negative = inhibition) at 1uM” value of the first is lower: 2.09% for the first, 8.13% for the second.

First: CCSc1nnc(-c2sc3nnc(-c4ccccc4)c(-c4ccccc4)c3c2N)o1
Second: S=c1[nH]nc(-c2cc(-c3ccccc3)n[nH]2)n1/N=C/c1ccccc1
The “hERG current change (%, negative = inhibition) at 1uM” value of the first is higher: 15.4% for the first, 9.99% for the second.

Compared with `CCOC(=O)/C(C#N)=N/Nc1ccc(S(=O)(=O)N2CCc3ccccc32)cc1`, `O=S(=O)(c1ccc(NC(=S)N/N=C/c2c3ccccc3cc3ccccc23)cc1)N1CCOCC1` is lower in “hERG current change (%, negative = inhibition) at 1uM” value: 9.3% for the first, 4.28% for the second.

Compared with `CC(C)NC(=O)CN(C(=O)CCC(=O)Nc1ccccn1)c1ccc(F)c(Cl)c1`, `O=C(COC(=O)Cc1ccccc1F)NNC(=O)c1ccc(Cl)cc1` is higher in “hERG current change (%, negative = inhibition) at 1uM” value: 7.45% for the first, 9.41% for the second.

Going from `COc1ccc2c(c1)O/C(=C\c1sccc1C)C2=O` to `Cc1nc(-c2cccs2)ccc1C(=O)O`, the “hERG current change (%, negative = inhibition) at 1uM” value falls from 0.193% to -8.08%.

Compared with `COc1ccc(N2CCN(C(=O)c3ccc(NS(=O)(=O)c4ccc(F)cc4)cc3)CC2)cc1`, `O=C(NC1CCCCCC1)c1ccc(CS(=O)(=O)Cc2ccc(F)cc2)o1` is higher in “hERG current change (%, negative = inhibition) at 1uM” value: 1.5% for the first, 13.3% for the second.

First: CC(=O)Nc1cc(NC(C)=O)cc(C(=O)OCC(=O)N(c2ccccc2)C2CCS(=O)(=O)C2)c1 (centres unmarked)
Second: O=C(NCc1ccco1)c1cccc(NC(=O)c2ccccc2)c1
The “hERG current change (%, negative = inhibition) at 1uM” value of the first is higher: 11.9% for the first, 7.19% for the second.

Compared with `C=CCn1c(=O)c(C(=O)Nc2ccccc2O)c(O)c2ccccc21`, `COc1ccc(/C=C/C(=O)c2ccccc2)cc1COc1ccccc1F` is lower in “hERG current change (%, negative = inhibition) at 1uM” value: 12.3% for the first, 3.82% for the second.

Compared with `O=C(Nc1ccc2c(c1)OCCO2)C1CC(c2ccc(F)cc2)=NO1` (centres unmarked), `Fc1ccc(C(c2nnnn2C2CCCC2)N(Cc2ccco2)CC2CCCO2)cc1` (centres unmarked) is higher in “hERG current change (%, negative = inhibition) at 1uM” value: 3.55% for the first, 3.96% for the second.

Compared with `CCC(C)(C)n1nnnc1CN1CCC(O)(c2cccc(C(F)(F)F)c2)CC1`, `CC1=Nc2cc(C(=O)NCCCN3CCOCC3)ccc2Sc2c(C)ccc(C)c21` is lower in “hERG current change (%, negative = inhibition) at 1uM” value: 17.1% for the first, 14.7% for the second.

Compared with `CC(=O)Nc1nc(C2CC2)cc(-c2ccccc2)c1C#N`, `COc1ccccc1-c1cc2ccccc2[nH]1` is higher in “hERG current change (%, negative = inhibition) at 1uM” value: 10.9% for the first, 13.5% for the second.

First: COC(=O)Cn1nnc(N2CCOCC2)n1
Second: COC(=O)c1nc2n(n1)C(c1ccccc1OC)C1=C(CCCC1=O)N2 (centres unmarked)
The “hERG current change (%, negative = inhibition) at 1uM” value of the first is higher: 21.2% for the first, 4.99% for the second.

First: CC(OC(=O)C1CSC2(c3ccc(F)cc3)CCC(=O)N12)C(=O)NC(N)=O (centres unmarked)
Second: O=C(NCc1ccc(F)cc1)N[C@@H](Cc1ccccc1)C(=O)O
The “hERG current change (%, negative = inhibition) at 1uM” value of the first is higher: 13.5% for the first, 2% for the second.

Compared with `CC(C)CN(C(=O)C1COc2ccccc2O1)c1c(N)n(CC(C)C)c(=O)[nH]c1=O` (centres unmarked), `CCCCn1c(N)c(N(CCOC)C(=O)c2cccc(S(=O)(=O)N(CC)c3ccccc3)c2)c(=O)[nH]c1=O` is higher in “hERG current change (%, negative = inhibition) at 1uM” value: 1.48% for the first, 3.36% for the second.

Going from `Cc1cc(Br)c(OCc2ccc(C(=O)N/N=C3\CC4CC=CC34)cc2)c(Br)c1` (centres unmarked) to `COc1cccc2cc(/C(=N/O)c3ccc(Br)cc3)oc12`, the “hERG current change (%, negative = inhibition) at 1uM” value rises from 6.99% to 8.74%.

Compared with `COc1cc(/C=C/C(=O)OCC(=O)Nc2cc(C)c(C)cc2[N+](=O)[O-])ccc1O`, `CCN(CC)C(=O)C1CCCN(c2ccc([N+](=O)[O-])cc2/C=N/NC(=O)c2cccc(O)c2)C1` (centres unmarked) is lower in “hERG current change (%, negative = inhibition) at 1uM” value: 9.25% for the first, 6.83% for the second.

Going from `CC(/C=N/NC(=O)c1ccco1)=C\c1ccccc1` to `Cc1cccc(NC(=O)CSCC(=O)NCc2ccco2)c1`, the “hERG current change (%, negative = inhibition) at 1uM” value falls from 11.8% to 3.38%.

Compared with `N#Cc1c(N)nc(N)nc1Nc1ccc(Br)cc1`, `Cc1ccc(CN=C2NC(=O)C(CC(=O)NCCc3ccccc3)S2)cc1` (centres unmarked) is lower in “hERG current change (%, negative = inhibition) at 1uM” value: 12.3% for the first, 3.58% for the second.

First: CN(C)c1ccc(C(=S)N2CCCCCC2)cc1
Second: Cc1cc(C)c(S(=O)(=O)NCC(c2ccco2)N2CCc3ccccc3C2)c(C)c1 (centres unmarked)
The “hERG current change (%, negative = inhibition) at 1uM” value of the first is higher: 8.13% for the first, 7.63% for the second.
